Laboratory results as given in the supplement of paper PMC7826260.
This is one part of the list. The data describe in vitro nicking of single-stranded DNA by Rep domains (3 µM enzyme, 1 h, 37 °C); shown is the middle of each 90-letter strand. Uncut reads are compared with the no-enzyme pool on a log2 scale; strong cutting gives strongly negative numbers. There is no active / inactive call. The scaling is to total reads; uncut strands gain when others are lost, and binding without cutting may add a little.

Experiments:
Assay in all cases: uncleaved DNA left, log2 of reads against the no-enzyme library (log2 ratio); higher = less cleavage (more negative = more Rep cleavage of the k-mer); sequences stand for … in CTCGTCCG…ACCGGAGA
[1] = tested on: T1, Rep nickase domain of Muscovy duck circovirus
T1 sequence (protein, residues 1-111, tag omitted): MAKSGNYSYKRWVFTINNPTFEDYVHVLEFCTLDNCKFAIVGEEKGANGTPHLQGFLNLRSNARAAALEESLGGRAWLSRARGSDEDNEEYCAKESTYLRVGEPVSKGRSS
Protocol: (§1)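 A pool of 90-nt single-stranded DNAs with seven random bases just before the constant AC of the nick site (name = the seven bases) was cut by 3 µM recombinant His6-SUMO-tagged Rep nickase domain (300 nM DNA, 50 mM HEPES pH 8.0, 50 mM NaCl, 1 mM MnCl2, 1 h, 37 °C, three replicates). Uncut DNA was amplified and sequenced.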

[2] = tested on: T2, Rep nickase domain of banana bunchy top virus
T2 sequence (protein, residues 1-94, tag omitted): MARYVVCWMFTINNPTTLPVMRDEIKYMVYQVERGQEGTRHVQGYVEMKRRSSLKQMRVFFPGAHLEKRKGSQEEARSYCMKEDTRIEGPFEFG
Protocol: as §1

[3] = tested on: T3, Rep nickase domain of cabbage leaf curl virus
T3 sequence (protein, residues 1-116, tag omitted): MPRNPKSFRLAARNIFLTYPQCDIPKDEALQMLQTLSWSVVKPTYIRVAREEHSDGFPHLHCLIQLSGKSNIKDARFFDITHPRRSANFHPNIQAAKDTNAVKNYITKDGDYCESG
Protocol: as §1

[4] = tested on: T4, Rep nickase domain of chickpea chlorotic dwarf virus
T4 sequence (protein, residues 1-124, tag omitted): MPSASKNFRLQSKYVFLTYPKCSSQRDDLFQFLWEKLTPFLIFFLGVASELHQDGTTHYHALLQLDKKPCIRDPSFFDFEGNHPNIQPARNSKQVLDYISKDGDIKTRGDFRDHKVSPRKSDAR
Protocol: as §1

[5] = tested on: T5, Rep nickase domain of faba bean necrotic yellows virus
T5 sequence (protein, residues 1-98, tag omitted): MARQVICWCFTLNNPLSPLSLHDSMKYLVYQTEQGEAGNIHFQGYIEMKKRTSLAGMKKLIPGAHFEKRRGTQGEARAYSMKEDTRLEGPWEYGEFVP
Protocol: as §1

[6] = tested on: T6, Rep nickase domain of maize striate mosaic virus
T6 sequence (protein, residues 1-117, tag omitted): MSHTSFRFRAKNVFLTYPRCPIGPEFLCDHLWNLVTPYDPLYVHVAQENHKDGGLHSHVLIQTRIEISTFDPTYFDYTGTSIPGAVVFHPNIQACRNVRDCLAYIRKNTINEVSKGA
Protocol: as §1

[7] = tested on: T7, Rep nickase domain of porcine circovirus 2
T7 sequence (protein, residues 2-116, tag omitted): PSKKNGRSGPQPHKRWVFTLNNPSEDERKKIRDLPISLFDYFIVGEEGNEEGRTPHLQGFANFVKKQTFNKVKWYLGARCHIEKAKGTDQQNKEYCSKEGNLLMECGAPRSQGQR
Protocol: as §1

[8] = tested on: T8, Rep nickase domain of tomato yellow leaf curl virus
T8 sequence (protein, residues 1-136, tag omitted): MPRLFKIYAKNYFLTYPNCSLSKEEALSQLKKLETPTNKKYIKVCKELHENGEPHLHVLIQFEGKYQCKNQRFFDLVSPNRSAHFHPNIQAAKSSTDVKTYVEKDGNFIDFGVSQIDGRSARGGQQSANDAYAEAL
Protocol: as §1

[9] = tested on: T9, Rep nickase domain of wheat dwarf virus
T9 sequence (protein, residues 1-137, tag omitted): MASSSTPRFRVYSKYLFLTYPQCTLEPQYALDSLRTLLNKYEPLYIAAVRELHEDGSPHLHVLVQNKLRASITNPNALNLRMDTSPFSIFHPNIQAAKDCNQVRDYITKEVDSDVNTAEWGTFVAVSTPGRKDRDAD
Protocol: as §1

Sequence	uncleaved DNA left (log2) [1]	uncleaved DNA left (log2) [2]	uncleaved DNA left (log2) [3]	uncleaved DNA left (log2) [4]	uncleaved DNA left (log2) [5]	uncleaved DNA left (log2) [6]	uncleaved DNA left (log2) [7]	uncleaved DNA left (log2) [8]	uncleaved DNA left (log2) [9]
TTATGGT	-0.624	0.0697	-1.84	-1.5	0.144	0.903	-0.803	0.0166	-0.154
GCCGGAA	0.0839	-0.0392	0.354	0.827	0.0313	0.684	0.104	-0.0951	-0.0165
GGGACAT	-0.0351	0.0454	0.929	2.12	-0.166	2.39	0.135	-0.664	0.164
CTAACGA	-0.0388	0.0648	-0.51	-0.725	0.107	-1.01	0.139	-0.0282	-0.107
CCACGTA	0.000936	-0.0971	-0.141	-0.943	0.0314	-0.681	-0.0234	-0.104	-0.1
CTCGAAA	-0.134	-0.0684	-0.0372	-0.146	-0.0751	-0.756	-0.0352	0.013	-0.0138
TCCATCA	-0.0301	0.176	0.32	-0.235	0.0502	-0.268	0.118	0.184	0.269
ACCTGTG	-0.0221	0.081	-0.507	0.787	0.0977	-0.354	0.121	0.0826	-0.13
GTTTGAT	0.000224	0.0716	0.431	0.957	0.00299	1.66	-0.109	0.0601	0.0989
GAATCCC	0.0912	-0.0116	-1.45	-1.43	0.033	0.573	-2.03	0.0863	-0.274
CAGCATG	-0.00706	-0.019	-0.0617	0.273	-0.0644	-0.0386	-0.00496	-0.124	-0.111
GGTGGGG	0.106	-0.0953	0.388	0.603	0.0821	0.609	0.134	0.0127	-0.0372
CATAGAG	0.0301	-0.0403	-0.673	-0.389	0.167	-1.05	0.267	0.0686	0.0333
TCACTGT	0.019	-0.168	0.0324	-0.0786	-0.0586	0.601	-0.0248	-0.0778	-0.0324
CAGACCA	0.0279	-0.000652	0.0536	-1.06	0.113	0.351	-0.468	-0.0748	0.095
GAAGTAT	0.0658	0.129	0.234	0.311	0.0994	1.38	0.056	0.0201	0.174
GACTAAT	-2.28	-2.12	0.185	-0.286	0.038	1.16	-2.78	0.123	0.21
CTTTTAA	0.0381	-0.0374	-0.152	-0.473	-0.049	-0.7	-0.183	0.0573	0.183
ATGGGTG	0.0687	0.079	-0.213	-0.0704	0.1	-0.445	0.297	0.119	0.00167
CTTCTGG	0.117	0.102	0.109	0.373	0.0283	-0.11	0.169	0.0617	0.00695
ACTGTAC	0.0897	0.032	-0.0743	-0.173	0.0602	-0.00577	0.226	-0.0528	-0.00476
TGAAAGT	0.0808	0.0193	0.0493	-0.259	-0.0157	-0.665	-0.0501	0.0482	-0.0152
AATGATA	0.0313	-0.169	-0.166	-0.921	0.0137	0.493	-0.0824	-0.177	-0.0883
CCTACAG	0.0269	-0.0661	-1.05	-2.09	-0.00958	-1.19	0.181	0.00732	-0.161
CAGCATC	0.0499	0.0749	-0.00381	-0.406	0.0446	-0.567	-0.00915	-0.0129	0.0477
AAATGGA	-0.0399	-0.00649	-0.0888	0.181	0.0681	-0.155	-0.236	-0.136	0.000618
ATCAAGA	0.0506	0.0824	0.098	0.0266	0.0421	-0.818	0.118	0.0565	0.0732
CCGTGGA	-0.0374	0.00278	0.257	0.31	-0.129	0.113	0.0996	-0.155	-0.0537
CCACCAT	-0.00101	-0.0581	0.0449	-1.2	0.0348	-0.502	-0.103	0.0485	0.0789
TACCAAA	0.02	0.133	-0.0213	-1.19	0.0949	-0.36	-0.411	0.0456	0.096
